Measured values taken from paper PMC6607443, “Systematic identification of recognition motifs for the hub protein LC8” (Life Science Alliance, 2019).
No constants are given. Whether binding was seen depends on the method and setting.

Protein sequences, listed by entry. Tags and fused reporters are not part of them.
UniProt P63167: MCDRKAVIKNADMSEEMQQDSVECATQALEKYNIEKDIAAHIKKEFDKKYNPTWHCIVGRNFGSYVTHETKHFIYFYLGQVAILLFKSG

Biological target: dynein light chain LC8 (UniProt P63167)
Assay: ITC; peptide (500 μM) injected into 25 μM LC8 in the cell; 25°C; 50 mM sodium phosphate, 50 mM NaCl, 1 mM sodium azide, 5 mM β-mercaptoethanol, pH 7.5; single-site model; averages of two to three experiments; both purified

B1: EIF3C peptide (peptide)
peptide: YELMASLDQPTQTVVM
binding: no binding (tested: 500 μM peptide injected into 25 μM LC8)

B2: EIF2S2 peptide (peptide)
peptide: KPFMLDEEGDTQTEET
binding: no binding (tested: 500 μM peptide injected into 25 μM LC8)

B3: POU2F1 peptide (peptide)
peptide: ESGDGNTGTQTNGL
binding: no binding (tested: 500 μM peptide injected into 25 μM LC8)

B4: ILK peptide (peptide)
peptide: MDDIFTQCREGN
binding: no binding (tested: 500 μM peptide injected into 25 μM LC8)

B5: EIF4G3 peptide (peptide)
peptide: DFTPAFADFGRQTPGG
binding: no binding (tested: 500 μM peptide injected into 25 μM LC8)

B6: DAZL peptide (243-257) (peptide)
peptide: YPQKKSVDRSIQTVVS
binding: no binding (tested: 500 μM peptide injected into 25 μM LC8)

B7: SH3RF2 peptide (peptide)
peptide: TLVSTASGTQTVFP
binding: no binding (tested: 500 μM peptide injected into 25 μM LC8)

B8: MUC5B-3 peptide (peptide)
peptide: SMATPSSSTQTSGT
binding: no binding (tested: 500 μM peptide injected into 25 μM LC8)

B9: PRSS36 peptide (peptide)
peptide: YGPDGEETETQTCPP
binding: no binding (tested: 500 μM peptide injected into 25 μM LC8)

B10: FMN2 peptide (peptide)
peptide: YHHRILEAKSIQTSPT
binding: no binding (tested: 500 μM peptide injected into 25 μM LC8)

B11: CCL25 peptide (peptide)
peptide: NKVFAKLHHNTQTFQA
binding: no binding (tested: 500 μM peptide injected into 25 μM LC8)

B12: ITGAX peptide (peptide)
peptide: YGQIAPENGTQTPSP
binding: no binding (tested: 500 μM peptide injected into 25 μM LC8)

B13: DNLJ2 (phage T5) peptide (peptide)
peptide: YKIEIPTQCPSCGSK
binding: no binding (tested: 500 μM peptide injected into 25 μM LC8)

B14: ANKIB1 peptide (peptide)
peptide: RGDGSDVSSQTPQT
binding: no binding (tested: 500 μM peptide injected into 25 μM LC8)

B15: ZZZ3 peptide (peptide)
peptide: KSVAENGDTDTQTSMF
binding: no binding (tested: 500 μM peptide injected into 25 μM LC8)

B16: MUC2 peptide (peptide)
peptide: TPTPTPTGTQTPTT
binding: no binding (tested: 500 μM peptide injected into 25 μM LC8)

B17: KCNQ2 peptide (peptide)
peptide: DDPMYSSQTQTYGD
binding: no binding (tested: 500 μM peptide injected into 25 μM LC8)
